Experimental data from ChEMBL document CHEMBL1201862, “PubChem BioAssay data set” (2004).
Several values for one entry are separate records, joined by “and”; a condition that tells them apart may be missing. Identical values can stand only once.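 1) Cells in 96-well plates. 2) Compound, 48 h, 5 concentrations. 3) Linear interpolation between surrounding doses. 4) Unreached endpoint = highest concentration. GI50 is the concentration that inhibits growth by half.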 Activity calls are given as the source filed them. Cut-off read from the data, not from the text of the source: active = GI50 up to about 1.1 µM and inactive = higher.

What follows are compounds tested on NCI-H322M (assay: inhibition of tumour cell growth, NCI panel, 48 h).
In the case of `Nc1ccc2cc(S(=O)(=O)O)cc(O)c2c1/N=N/c1ccc(NC(=O)Nc2ccc(/N=N/c3c(N)ccc4cc(S(=O)(=O)O)cc(O)c34)c(S(=O)(=O)O)c2)cc1S(=O)(=O)O`, the GI50 is reported as inactive: > 100 µM. `Nc1nc(Cc2ccccc2)nc(Cc2ccccc2)c1-c1ccccc1` was tested, and the GI50 was inactive: 32.9 µM. For `CCOC(=O)Cc1nn2c(=O)cc(C)nc2s1`, the GI50 was inactive: > 100 µM. `O=C(O)c1ccn(-c2cccc(-n3ccc(C(=O)O)n3)n2)n1` was tested, and the GI50 was inactive: > 100 µM. With `COC(=O)CC1C2(C)C3=C(C)C(c4ccoc4)CC3OC2C2OC(=O)C3(C)C=CC(=O)C1(C)C23` (stereo not drawn) the GI50 was inactive: 2.1 µM. For `COc1ccc(S(=O)(=O)c2ccccc2[N+](=O)[O-])cc1`, the GI50 was inactive: > 100 µM. With `O=C(O)C1Cc2c([nH]c3ccccc23)C(CCCCO)N1` (stereo not drawn) the GI50 was inactive: > 100 µM. In the case of `O=C(c1ccccc1)c1ccc(N2C(=O)/C(=C/Cc3ccco3)N=C2c2ccccc2)c(N2C(=O)/C(=C/Cc3ccco3)N=C2c2ccccc2)c1`, the GI50 is reported as inactive: > 100 µM. With `CCOC(=O)Nc1ccc(S(=O)(=O)Nc2ccc(Br)cc2)cc1` the GI50 was inactive: 71.3 µM. In the case of `CC1=C2C(=O)c3ccccc3C(=O)[C@H]2C[C@@H](N2CCCCCC2=O)O1`, the GI50 is reported as inactive: 22.6 µM. For `NCCn1ccc(NC(c2ccccc2)(c2ccccc2)c2ccccc2)nc1=O`, the GI50 was inactive: 22.9 µM. `CCN(CC)CCC1(C2CCCCC2)CCC(=O)NC1=O` (stereo not drawn) was tested, and the GI50 was inactive: > 100 µM. For `COc1ccc(/C(C)=N/NC(=O)c2ccncc2)cc1OC`, the GI50 was inactive: > 10 µM. For `Cc1ccc(C)c2sc3cc(=O)ccc-3nc12`, the GI50 was inactive: 52.2 µM. For `C=C1C(=O)OC2/C=C(/CO)C3(O)CC(O)C(C)(CC(OC(=O)/C(C)=C/C)C12)O3` (stereo not drawn), the GI50 was inactive: 44.7 µM. For `CCc1nc2cc(/N=N/c3c(O)ccc4ccccc34)ccc2[nH]1`, the GI50 was inactive: 23.4 µM. With `O=C(CC1(O)C(=O)Nc2ccccc21)c1ccccc1Cl` (stereo not drawn) the GI50 was inactive: > 100 µM. For `O=C(/C=C/c1ccccc1)c1ccc(NCc2nc3ccccc3[nH]2)cc1`, the GI50 was inactive: 12.1 µM. In the case of `NS(=O)(=O)c1ccc(Nc2c3ccccc3nc3c(C(=O)NCCCN(CCO)CCO)cccc23)cc1`, the GI50 is reported as inactive: 30.7 µM. In the case of `COc1ccc(C2c3cc4c(cc3OC(Nc3ccccc3)C2C)OCO4)cc1` (stereo not drawn), the GI50 is reported as inactive: > 100 µM. In the case of `CC1=Cc2ccc(C)cc2C(=O)C1=O`, the GI50 is reported as inactive: 20.1 µM. For `COc1cc(C(c2c(O)c3ccccc3oc2=O)c2c(O)c3ccccc3oc2=O)cc(Br)c1O`, the GI50 was inactive: 19.3 µM. In the case of `COC(=N)C1(C#N)NC(c2ccsc2)C(C#N)(C#N)NC1c1ccsc1` (stereo not drawn), the GI50 is reported as inactive: > 100 µM. In the case of `Cc1cccc(/C=N/C23CC4CC(CC(C4)C2)C3)c1`, the GI50 is reported as inactive: > 100 µM. For `O=C(CNc1ccccc1[N+](=O)[O-])Nn1c(-c2ccccc2)nc2ccccc2c1=O`, the GI50 was inactive: 21 µM. For `CCOC(=O)NC(=S)NN(C)C1=NCC(C)(C)S1`, the GI50 was inactive: > 100 µM. In the case of `NS(=O)(=O)c1ccc(-c2ccc([As](=O)(O)O)cc2)cc1`, the GI50 is reported as inactive: > 100 µM. For `CCCC1C(=O)CCc2c(OC)ccc(OC)c21` (stereo not drawn), the GI50 was inactive: > 100 µM. For `CC1(c2ccc(Cl)cc2)C=C(c2ccc(Cl)cc2)C(C#N)=C(C(C#N)C#N)N1.CNC` (stereo not drawn), the GI50 was inactive: 16 µM. For `CO/C(N)=C(C#N)/N=C/c1ccco1`, the GI50 was inactive: > 100 µM. In the case of `C=C1C[C@@H](O)[C@@H](Br)C(C)(C)[C@@]12C=CC(O)(CBr)CC2` (stereo partly drawn), the GI50 is reported as inactive: 48 µM. For `O=c1ccn(CC2(CO)CCC2)c(=O)[nH]1`, the GI50 was inactive: > 100 µM. In the case of `CSc1nc(-c2ccccc2)nc(N2CCOCC2)[s+]1`, the GI50 is reported as inactive: > 100 µM. `N=C1SCCS1` was tested, and the GI50 was inactive: > 100 µM. With `OC(CC(O)(C(F)(F)F)C(F)(F)F)C(O)c1ccco1` (stereo not drawn) the GI50 was inactive: > 10 µM. For `O=C(O)c1ccc(C2=Nc3cccc4cccc(c34)N2)cc1`, the GI50 was inactive: > 100 µM. In the case of `CC1(C)C2CCC1(C)C(NC(=O)CCN1CCOCC1)C2` (stereo not drawn), the GI50 is reported as inactive: > 100 µM. With `COc1ccc(-c2c(C(C)=O)c(-c3ccccc3)n(C3OC(COC(C)=O)C(OC(C)=O)C(OC(C)=O)C3OC(C)=O)c(=S)c2C#N)cc1O` (stereo not drawn) the GI50 was inactive: > 100 µM and inactive: 89.7 µM. For `CC(=O)OCC1OC(Sc2nc(-c3ccc(C)cc3)c(C#N)c(=O)n2C2OC(COC(C)=O)C(OC(C)=O)C(OC(C)=O)C2OC(C)=O)C(OC(C)=O)C(OC(C)=O)C1OC(C)=O` (stereo not drawn), the GI50 was inactive: > 100 µM. With `O=c1cc(N2CCOCC2)[nH]c(=O)n1-c1cccc(Cl)c1` the GI50 was inactive: > 100 µM. `O=C1NC(=O)C(C(CC(=O)c2ccc(Cl)cc2)c2ccc(Cl)cc2)C(=O)N1` (stereo not drawn) was tested, and the GI50 was inactive: 39.7 µM. `CC1=NN(c2nc(N)nc(-c3ccccc3S(N)(=O)=O)n2)C(C)(C)C1` was tested, and the GI50 was inactive: 18.9 µM. For `CC(=O)OCC12CN(C#N)C3C4COC(CC41)C1(C(=O)N(C)c4ccccc41)C32` (stereo not drawn), the GI50 was inactive: 34.4 µM.
